Reference: the RNAGym collection of RNA variant scans (doi:10.7554/elife.90254)
Read counts are not given, so values of variants with three or more changes are uncertain.

B1: LINE1-mini (parent)
chain: GGCAGAGCUCAACACAGCGUGGCAAAGUGGCUGUGGCUAGACUGCC

Variants of: B1
Experiment: self-cleavage, relative activity (ratio to wild type); higher = more cleavage; in vitro, sequencing; the parent is a self-cleaving ribozyme
GGCAGAGCUCAACACAGCGUGGCAAAGCGGCUGGGGCUAGUGUGCC showed a self-cleavage of 0.04. GGCAGAGCUCAACACAGCGUGGCAAAGCGGCUGCAGCUAGACUGCC gave a self-cleavage of 0.04. GGCAGAGCUCAACACAGCGUGGCAAAGUAGGUGUGAAUAGACUGCC gave a self-cleavage of 0.13. GGCAGAGCUCAACACAGCGUGGCAAAGUAGCUGUGUCAAGACUGCC gave a self-cleavage of 0.02. GGCAGAGCUCAACACAGCGUGGCAAAGUAGCUGUGCCUAGACUGCA gave a self-cleavage of 0.06. With GGCAGAGCUCAACACAGCGUGGCAAAGCGGCUGCGGUUAGACUGCC the self-cleavage was 0.06. Work on GGCAGAGCUCAACACAGCGUGGCAAAGCGGCUGUGGUUAGACGGCC yielded a self-cleavage of 0.02. Variant GGCAGAGCUCAACACAGCGUGGCAAAGAGGCUGUGGCUUGAGUGCC has a self-cleavage of 0. In the case of GGCAGAGCUCAACACAGCGUGGCAAAGCAGCUGUGGCUAGACUCCC, the self-cleavage is reported as 0.59. For GGCAGAGCUCAACACAGCGUGGCAAAGUAGCUGUGUCUAGCCUGUC, the self-cleavage was 0.23. With GGCAGAGCUCAACACAGCGUGGCAAAGGGGCUAUGGCUAGAUUUCC the self-cleavage was 0.05. With GGCAGAGCUCAACACAGCGUGGCAAAGCGGCUAUGGCUAGACUACC the self-cleavage was 0.05. For GGCAGAGCUCAACACAGCGUGGCAAAGAGGCUGGGGCGAGAAUGCC, the self-cleavage was 0.02. Work on GGCAGAGCUCAACACAGCGUGGCAAAGGGGCGGAGGCCAGACUUCC yielded a self-cleavage of 0.02. GGCAGAGCUCAACACAGCGUGGCAAAGUAGCUGUGGCUAGAAAGCC gave a self-cleavage of 0.04. In the case of GGCAGAGCUCAACACAGCGUGGCAAAGCGGUUGUGGUUAGACUACC, the self-cleavage is reported as 0.05. With GGCAGAGCUCAACACAGCGUGGCAAAGGGGCUGUGGGUAAACUGCC the self-cleavage was 0.07. With GGCAGAGCUCAACACAGCGUGGCAAAGAGCCUGUCGCUAGACUGCC the self-cleavage was 0.02. In the case of GGCAGAGCUCAACACAGCGUGGCAAAGAGGCUGUGGCUACACGGCC, the self-cleavage is reported as 0.08. In the case of GGCAGAGCUCAACACAGCGUGGCAAAGGGGCGAUUGCUAGACUGCC, the self-cleavage is reported as 0.18. With GGCAGAGCUCAACACAGCGUGGCAAAGUACCUAUCGCUCGACUGCG the self-cleavage was 0.03. Variant GGCAGAGCUCAACACAGCGUGGCAAAGAGGCUGUGGCUAUAGUGGC has a self-cleavage of 0.01. Work on GGCAGAGCUCAACACAGCGUGGCAAAGACGCUGUGGCUAGACGGCC yielded a self-cleavage of 0.01. Work on GGCAGAGCUCAACACAGCGUGGCAAAGCGGCUGGGGCUAGACUGAC yielded a self-cleavage of 0.02. In the case of GGCAGAGCUCAACACAGCGUGGCAAAGGGGCUGCGGCUAAACUGCC, the self-cleavage is reported as 0.03. For GGCAGAGCUCAACACAGCGUGGCAAAGGGGCUCUGGAUAGACUGCC, the self-cleavage was 0.02. For GGCAGAGCUCAACACAGCGUGGCAAAGAGGCUGUGGUUAAACUGUC, the self-cleavage was 0.02. Work on GGCAGAGCUCAACACAGCGUGGCAAAGACGCUGUGGUUAGACUGCG yielded a self-cleavage of 0.05. With GGCAGAGCUCAACACAGCGUGGCAAAGUAGCUGUACCUAGACUGCC the self-cleavage was 0.18. GGCAGAGCUCAACACAGCGUGGCAAAGCUGCUGUGGCUAGUCUGUC gave a self-cleavage of 0.02. GGCAGAGCUCAACACAGCGUGGCAAAGGGGCUGUCGCUAGACUGUC showed a self-cleavage of 0.02. GGCAGAGCUCAACACAGCGUGGCAAAGGGGUUCUGGCUAGACUACC showed a self-cleavage of 0.03. In the case of GGCAGAGCUCAACACAGCGUGGCAAAGAGGCUAUCGCUAGACUUUA, the self-cleavage is reported as 0.05. With GGCAGAGCUCAACACAGCGUGGCAAAGGGGCUGUGGCUAAACUGGC the self-cleavage was 0.01. GGCAGAGCUCAACACAGCGUGGCAAAGAGGCGGCGGCUAGACUAUC gave a self-cleavage of 0. With GGCAGAGCUCAACACAGCGUGGCAAAGUAGCUGUGGAAAGACUGCC the self-cleavage was 0.04. With GGCAGAGCUCAACACAGCGUGGCAAAGGGGCUGUGGCUAGCCUGGC the self-cleavage was 0.04. With GGCAGAGCUCAACACAGCGUGGCAAAGGGGCUGAGGCUAGAGUGCC the self-cleavage was 0.01. GGCAGAGCUCAACACAGCGUGGCAAAGGGGCUGUGGCUAGACGGCA gave a self-cleavage of 0.15. In the case of GGCAGAGCUCAACACAGCGUGGCAAAGCGGCUGUGCCUAGACAGCC, the self-cleavage is reported as 0.11. GGCAGAGCUCAACACAGCGUGGCAAAGCGGGUGUGUCUAGACUGCC gave a self-cleavage of 0.05. GGCAGAGCUCAACACAGCGUGGCAAAGCGGCUGCGUCUAGACUGCG showed a self-cleavage of 0.05. Work on GGCAGAGCUCAACACAGCGUGGCAAAGUAGCUGUGGCUUUACUGCC yielded a self-cleavage of 0.12. In the case of GGCAGAGCUCAACACAGCGUGGCAAAGCGGCUGAGGCUAGCCUGCU, the self-cleavage is reported as 0.02. Work on GGCAGAGCUCAACACAGCGUGGCAAAGUAGCUGUGCCUAGAUUGCC yielded a self-cleavage of 0.16. With GGCAGAGCUCAACACAGCGUGGCAAAGGGGCUGAGCCCAGCCUGCC the self-cleavage was 0.02. In the case of GGCAGAGCUCAACACAGCGUGGCAAAGUAGCUGCGGCUAGUCUGCC, the self-cleavage is reported as 0.1. For GGCAGAGCUCAACACAGCGUGGCAAAGCGGCUGUGUCUGGACUGCC, the self-cleavage was 0. With GGCAGAGCUCAACACAGCGUGGCAAAGCUGGUGUGGCUAGAAUGCC the self-cleavage was 0.01. For GGCAGAGCUCAACACAGCGUGGCAAAGUAUCCGUGGCUAGCCUGCC, the self-cleavage was 0.02. In the case of GGCAGAGCUCAACACAGCGUGGCAAAGUAGCUAUGGUUAGACUGCC, the self-cleavage is reported as 0.02. With GGCAGAGCUCAACACAGCGUGGCAAAGAGGCUGGGGCUAGAUUGCC the self-cleavage was 0.05. For GGCAGAGCUCAACACAGCGUGGCAAAGGGGCUGUGACUAGACAGCC, the self-cleavage was 0.04. For GGCAGAGCUCAACACAGCGUGGCAAAGUAGCUCUGGCUAGACUCCC, the self-cleavage was 0.02. GGCAGAGCUCAACACAGCGUGGCAAAGCGGCUGUGGCUAGAUUGUC showed a self-cleavage of 0.1. Variant GGCAGAGCUCAACACAGCGUGGCAAAGCGGCUGUGGCUAGAAUCCC has a self-cleavage of 0.08.
